According to the supplement of paper PMC11417369:
± gives the standard deviation of the averaged measurements. The list shows a part of the results.

System: PfAP2-LT AP2 domain (GST-tagged)
Test: gcPBM binding intensity (ln(normalized median fluorescence intensity)); higher = stronger DNA binding
In short: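 GST-tagged P. falciparum DNA-binding domains, expressed in E. coli (about 25 μg on average), were applied for 1 h to an Agilent 4 × 180k array of primer-extended double-stranded 36-bp intergenic genomic probes plus negative controls. The binding buffer was 1× PBS with 1% milk, 0.2 mg/ml BSA, 0.5% salmon testes DNA and 0.03% Triton X-100. Bound protein was detected with Alexa488 anti-GST antibody and scanned at 488 nm. Binding intensity is the highest Masliner-normalised natural-log median intensity across replicate spots of either probe orientation.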

Sequence | gcPBM binding intensity (ln)
ATTATGTACTATTATACACACGTTTAATTGTAAATT [CACACA_site4278] | 8.97 ± 0.33
TTTCTAATTATTTCCCTTCAAATATATTAATATCGT [CACACA_negctrl_site429] | 8.61 ± 0.46
TAAAAATGTGGACACACACACATATATATATTTAAT [CACACA_site4941] | 9.43 ± 0.48
ATATATATTATTATATGTACATATAAATATATTAAT [XGTACX_site5270] | 8.61 ± 0.35
AAAAGGAAAATACTAGCACACAATATATAATAAACA [CACACA_site285] | 9.16 ± 0.37
TTAGTATATACATTTGCACACATTATTTTTTAACAT [CACACA_site2618] | 9.23 ± 0.33
ATATTGTAAGTAAAATGTAATAAATATAATAAAATA [CACACA_negctrl_site697] | 8.79 ± 0.42
TCCTTGCATTTTAAAACACACAAAAATTAATTGTTA [CACACA_site7152] | 8.53 ± 0.54
TACATACATAAACACACACACACATATATATATATA [CACACA_site8953] | 10.2 ± 0.23
ATTTTATAAACAAATGAACACACAAACATATATATA [CACACA_site9036] | 9.07 ± 0.42
ATTTGTGTATATTAGAGTACATAAAATTAGAGGAAC [XGTACX_site1654] | 8.87 ± 0.38
ATCAAAAGAAAACACACACACATACATATATATATA [CACACA_site3795] | 10.1 ± 0.3
ACCCATTCAAATTTCGCACACACATACAAAAAAAAA [CACACA_site3094] | 9.42 ± 0.4
CATTAATGACATGATTGTACATAAGCTTTTTTACAT [XGTACX_site1888] | 8.93 ± 0.32
TTCATATATTATTATGCATGTTCATAAATTATCTAA [TGCATGCA_site896] | 8.61 ± 0.36
TTCATATAATTATATACATGCATAAATTCTAAGTAA [TGCATGCA_site622] | 8.45 ± 0.35
TCATACATGGTGTGTTTGCACTTGACCTATATTCAT | 9.04 ± 0.38
TCTTGAATAACAAAAAAATGTGCCAACAAAATAAAT [XGTACX_negctrl_site172] | 8.89 ± 0.49
ACAACTCGGAAGGTTTGTACTTAAAGTATAATTAAG [XGTACX_site737] | 8.61 ± 0.53
TTTGTAAAACTATATTGTACTTTTATATATCTACAA [XGTACX_site5507] | 8.56 ± 0.47
AATTGGAAGAAAAAAAAGGAAGGAAAGTTATTACAT [GTGCAC_negctrl_site74] | 8.59 ± 0.58
TATATACATGCATATACACACATATATTTATTTATA [CACACA_site6327] | 8.93 ± 0.31

Sequence | gcPBM binding intensity (ln)
TACTGAAATAATTATTTAAACGTTTTTATATGTATT [CACACA_negctrl_site487] | 8.8 ± 0.45
TTTATTTTTTCCAAGTCACACATGTTTTGATATATT [CACACA_site4946] | 8.9 ± 0.49
GTATATATGTATGTATGTACGTATATAGTTATGTAT [XGTACX_site6769] | 8.98 ± 0.3
ATAAAAAAATTAAATACATGCACATATACACATACA [TGCATGCA_site129] | 8.89 ± 0.4
TAAATAGATGTTTTATGTACGTATAAATAAAAAAAA [XGTACX_site3412] | 8.55 ± 0.52
TTTTTTTAAAGACATGCATGTAATATTTAAATCATT [TGCATGCA_site495] | 8.7 ± 0.48
ATTAAAAATATAGTCACACATACACCCATATATATT [CACACA_site5394] | 9.11 ± 0.23
AGGATACACAGACACACACACATATATATATATATA [CACACA_site907] | 10.47 ± 0.064
GATTTTTTTTTGTGGACACACAGAAATAAATTTATA [CACACA_site327] | 8.63 ± 0.44
ATACAACGATATATATATATACAAATACATATTTAT [CACACA_negctrl_site268] | 9.03 ± 0.4
AATATATTTTTTCACTGTACTTTTATTATATATACA [XGTACX_site8312] | 9.13 ± 0.38
AAAAAAAATGGATGATCACACACTTCATAAAAATTG [CACACA_site2213] | 8.87 ± 0.43
ATAATTTTTTGATTTGCATGTAATAAATATATGATA [TGCATGCA_site384] | 8.52 ± 0.33
ACACATATATAAATATGTACATATATATATATACAT [XGTACX_site1595] | 9.15 ± 0.28
TCTATTAATTAATATACACACATTAGATATAAATAT [CACACA_site7241] | 8.62 ± 0.38
TAATTAAATAAAAAAACACACACATATATACATATA [CACACA_site9141] | 9.2 ± 0.22
AAAAAAAAAAAAAAAAGTACTAATTGAATATTAAAC [XGTACX_site3383] | 8.48 ± 0.54
ATGGTAAGTATTTTATGTACATATATATTTATATAA [XGTACX_site4003] | 8.66 ± 0.39
ACATATATATAAATATATATATATATATATATATAT [CACACA_negctrl_site874] | 9.59 ± 0.28
TACACCCATAGACACACACACACGCATAAAAAAAAA [CACACA_site8428] | 9.95 ± 0.55
AAAAAACAAAAAATTACACACATATATAAATATATT [CACACA_site2317] | 8.85 ± 0.37
TAATAAAGGTGTAATACACACTATAAAAAGGAATAT [CACACA_site4756] | 9.04 ± 0.57

Sequence | gcPBM binding intensity (ln)
ATGTGTATATATTATTGTACATATATATATATATAT [XGTACX_site4627] | 9.48
ACAAGTTAAAATATTACACACATATAAATATATATA [CACACA_site3132] | 8.88 ± 0.38
ATAAGGTTACAACAAACACACAAAGGAATATACTCA [CACACA_site6108] | 9.11 ± 0.44
TTTTATTTACACAGTGGTACTATTAAAAATTAATGA [XGTACX_site6737] | 8.42 ± 0.41
ACTTACACAGTTGATGGTACACTTTTATGATTTTGT [XGTACX_site3205] | 9.21 ± 0.42
TTTTTTAACCTTTTATGTACACAATATTTAACATTT [XGTACX_site1170] | 8.81 ± 0.51
ATTTCATATTATGTAACACACAACAAGATAATCAAA [CACACA_site1960] | 8.86 ± 0.46
TATATATAAAGGTGTACACATATATATATATCTGTA [CACACA_site5311] | 8.89 ± 0.35
TTTTTCTTTTTACATACACACAAAAAAATAAAATAT [CACACA_site581] | 8.52 ± 0.35
TTTTTCAAATTTAATACACACACAAGTATATATTTA [CACACA_site9307] | 8.9 ± 0.3
AAATTAATATTATGTGCATGCACAAAGAGGAACGAC [TGCATGCA_site754] | 9.56 ± 0.46
TGGTAATTTCTTTGATAAAAATTAATATGTATAAAT [XGTACX_negctrl_site152] | 8.24 ± 0.49
TATTTTAACATTAGGTGTACATACAAAAATAAAAAT [XGTACX_site8577] | 8.84 ± 0.4
AATATTTGTTAAAGAGGTACACCATTTGGTAGGGAA [XGTACX_site2165] | 8.73 ± 0.47
ATTATTTAAATGGATGCACACATGCATTAAATAAAA [CACACA_site5831] | 8.75 ± 0.45
AAAAAAAAAAATATAACACACAACAAAAAAATATAT [CACACA_site1753] | 9.15 ± 0.48
ATAATATGAAAACACACACACACACTAGAAAAAAAA [CACACA_site5153] | 10.2 ± 0.27
ACCCTATATGTAACTACACACCGCATATTGTTTACT [CACACA_site3071] | 9.46 ± 0.42
TTTATATTCTTAAGTGTGCACTATATATATATATAT [GTGCAC_site9719] | 9.16 ± 0.23
TTTGTTCATATTATTGTGCACTTAAACGTAACAAAA [GTGCAC_site9505] | 8.6 ± 0.31
ATGTATGTATATACTTGTACATATTCATATTAGTAT [XGTACX_site1118] | 8.91 ± 0.39
AATGTAGCATTTTATCGTACACTTAATACAAAAAAG [XGTACX_site6214] | 8.73 ± 0.3

Sequence | gcPBM binding intensity (ln)
TAATAAGTAAAAAAATGTACCCGTTAGGTTTAATAA [XGTACX_site638] | 8.53 ± 0.53
AAAATAATATTTAATACACACACCAGTTCTGCAAAT [CACACA_site3736] | 9.27 ± 0.31
TTTTTTTATTTTATTTTATTATCTTATGTATCACAA [CACACA_negctrl_site1755] | 8.66 ± 0.47
AGAAATATATATATATATATATGTGACAATATTTGT [TGCATGCA_negctrl_site282] | 9.19 ± 0.26
TTTTTCTCTCTCTTATTATACAACAACAAAAAAAAA [GTGCAC_negctrl_site178] | 8.02 ± 0.35
ACAAAAAGGTAATTTACACACTGCATATAGGAATAA [CACACA_site2929] | 9.08 ± 0.47
TATAATAATAATAATAGTACGTATTATTAAAAAACT [XGTACX_site10] | 8.88 ± 0.39
ATATTACACATATATGCACACATTGTAGTTATTTAT [CACACA_site8843] | 9.24 ± 0.33
CAATTACAAAAGAAATGTACTCGTAATAAATAAATA [XGTACX_site1126] | 8.96 ± 0.47
TGAAATTTTTATACATGTACAAAATTAAATATAACA [XGTACX_site7324] | 8.59 ± 0.41
AAATTATTTCCGTGTACACATAAATATATATTTTAT [CACACA_site5121] | 9.01 ± 0.38
TAAGTTCACAAAAAAAAAAAAAAATAAAGAAATAAA [CACACA_negctrl_site825] | 8.35 ± 0.62
TTATTATGCTGAGTACGTACTTATATAAGAATAGCA [XGTACX_site2955] | 8.7 ± 0.38
ATGTATATAATAAGAACACACATATATTTAATTTAA [CACACA_site2941] | 9.01 ± 0.46
TATTCTATATTTCTATTTAGAAAACATCCCAGTGTG [GTGCAC_negctrl_site184] | 8.49 ± 0.52
AAAAATAAAATATATACATGCATATACATATTATAT [TGCATGCA_site668] | 8.71 ± 0.44
TGTTATATTTAATATAGTACATATTATTTTATATAT [XGTACX_site70] | 8.71 ± 0.49
AGAAAATTAAAAAGAACACACAAATATATATAGAAT [CACACA_site3592] | 9.18 ± 0.51
ATTTATATGCACCATTGTACGTTTTATAAAGTTTGG [XGTACX_site3755] | 8.94 ± 0.42
ATACATATATACATACGTACTTATATACATATGTGC [XGTACX_site5268] | 9.07 ± 0.42
TATCATGTCTGTATTTCACACACGGATAATCATTTA [CACACA_site920] | 9.09 ± 0.44
ATGCTTTTATAAATAATTAAAAAAAAAAAAAAAAAA [TGCATGCA_negctrl_site533] | 7.92 ± 0.42
